Measurements from publication PMC12820563, “FoxP3 forms a head-to-head dimer in vivo and stabilizes its multimerization on adjacent microsatellites”.
The list shows a part of the results.

The sequences below were run against T1, MBP-FoxP1dN (Mus musculus, UniProt P58462 326-579) (assay: PD-seq (MBP pull-down with sequencing); 20 mM Tris-HCl pH 7.5, 100 mM NaCl, 1.5 mM MgCl2, 0.4 uM protein, 0.1 uM dsDNA library, 30 min, room temperature, amylose pull-down; high values mean tight binding). Details: protein: recombinant; tags: His6-MBP; chain copies: 2; dsDNA, one strand shown.
T1 sequence: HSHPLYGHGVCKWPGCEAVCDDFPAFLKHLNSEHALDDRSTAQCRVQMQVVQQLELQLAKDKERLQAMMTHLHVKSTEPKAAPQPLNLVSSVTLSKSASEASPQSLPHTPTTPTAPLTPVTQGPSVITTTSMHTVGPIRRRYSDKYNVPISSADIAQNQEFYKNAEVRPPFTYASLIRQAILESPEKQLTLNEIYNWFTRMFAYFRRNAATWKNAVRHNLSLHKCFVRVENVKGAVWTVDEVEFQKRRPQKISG
Summary of the method: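 E. coli-expressed mouse FoxP3 or FoxP1 fragment, N-terminus removed and tagged with His6-MBP, was used at 0.4 µM against 0.1 µM of a Klenow-filled degenerate double-stranded DNA library. After 30 min at room temperature in Tris pH 7.5 buffer with NaCl and MgCl2, complexes were pulled down on amylose resin and washed three times. Binding is pull-down over input reads-per-million enrichment from pooled replicates of the proteinase K-released, PCR-barcoded, Illumina-sequenced DNA.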

| Sequence | binding signal |
| --- | --- |
| GATGATTGTTCTCCCAGCTGATGAATTTGCAGAGTCGAGTAAACAAATTTTCCTAATCTTTCTGTTCAAGCGCCATCTAC | 0.839 RPM ratio (pull-down/input) |
| GATGATTGTTCTCCCAGCTGATGAATTGAAGGACTCGAGTAAACAAATTTTCCTAATCTTTCTGTTCAAGCGCCATCTAC | 0.81 RPM ratio (pull-down/input) |
| GATGATTGTTCTCCCAGCTGATGAATTATTCCGATCGAGTAAACAAATTTTCCTAATCTTTCTGTTCAAGCGCCATCTAC | 1.02 RPM ratio (pull-down/input) |
| GATGATTGTTCTCCCAGCTGATGAATTTAGAGTCTCGAGTAAACAAATTTTCCTAATCTTTCTGTTCAAGCGCCATCTAC | 0.902 RPM ratio (pull-down/input) |
| GATGATTGTTCTCCCAGCTGATGAATTTCAGAGCTCGAGTAAACAAATTTTCCTAATCTTTCTGTTCAAGCGCCATCTAC | 0.714 RPM ratio (pull-down/input) |
| GATGATTGTTCTCCCAGCTGATGAATTCGAGACCTCGAGTAAACAAATTTTCCTAATCTTTCTGTTCAAGCGCCATCTAC | 0.705 RPM ratio (pull-down/input) |
| GATGATTGTTCTCCCAGCTGATGAATTTGATTATTCGAGTAAACAAATTTTCCTAATCTTTCTGTTCAAGCGCCATCTAC | 1.2 RPM ratio (pull-down/input) |
| GATGATTGTTCTCCCAGCTGATGAATTGCCGTGATCGAGTAAACAAATTTTCCTAATCTTTCTGTTCAAGCGCCATCTAC | 0.988 RPM ratio (pull-down/input) |
| GATGATTGTTCTCCCAGCTGATGAATTTCTACGCTCGAGTAAACAAATTTTCCTAATCTTTCTGTTCAAGCGCCATCTAC | 0.824 RPM ratio (pull-down/input) |
| GATGATTGTTCTCCCAGCTGATGAATTTTCCTTATCGAGTAAACAAATTTTCCTAATCTTTCTGTTCAAGCGCCATCTAC | 0.987 RPM ratio (pull-down/input) |
| GATGATTGTTCTCCCAGCTGATGAATTATCGGACTCGAGTAAACAAATTTTCCTAATCTTTCTGTTCAAGCGCCATCTAC | 0.894 RPM ratio (pull-down/input) |
| GATGATTGTTCTCCCAGCTGATGAATTTCCGATATCGAGTAAACAAATTTTCCTAATCTTTCTGTTCAAGCGCCATCTAC | 0.949 RPM ratio (pull-down/input) |
| GATGATTGTTCTCCCAGCTGATGAATTCTCGGGCTCGAGTAAACAAATTTTCCTAATCTTTCTGTTCAAGCGCCATCTAC | 0.757 RPM ratio (pull-down/input) |
| GATGATTGTTCTCCCAGCTGATGAATTAGTCCCTTCGAGTAAACAAATTTTCCTAATCTTTCTGTTCAAGCGCCATCTAC | 0.884 RPM ratio (pull-down/input) |
| GATGATTGTTCTCCCAGCTGATGAATTCGTTCTCTCGAGTAAACAAATTTTCCTAATCTTTCTGTTCAAGCGCCATCTAC | 0.855 RPM ratio (pull-down/input) |
| GATGATTGTTCTCCCAGCTGATGAATTAGTTATTTCGAGTAAACAAATTTTCCTAATCTTTCTGTTCAAGCGCCATCTAC | 1.29 RPM ratio (pull-down/input) |

| Sequence | binding signal |
| --- | --- |
| GATGATTGTTCTCCCAGCTGATGAATTCTGAGGGTCGAGTAAACAAATTTTCCTAATCTTTCTGTTCAAGCGCCATCTAC | 0.697 RPM ratio (pull-down/input) |
| GATGATTGTTCTCCCAGCTGATGAATTCGGGACGTCGAGTAAACAAATTTTCCTAATCTTTCTGTTCAAGCGCCATCTAC | 0.836 RPM ratio (pull-down/input) |
| GATGATTGTTCTCCCAGCTGATGAATTTACTAAGTCGAGTAAACAAATTTTCCTAATCTTTCTGTTCAAGCGCCATCTAC | 1.29 RPM ratio (pull-down/input) |
| GATGATTGTTCTCCCAGCTGATGAATTAGGTCCTTCGAGTAAACAAATTTTCCTAATCTTTCTGTTCAAGCGCCATCTAC | 0.924 RPM ratio (pull-down/input) |
| GATGATTGTTCTCCCAGCTGATGAATTAACATCCTCGAGTAAACAAATTTTCCTAATCTTTCTGTTCAAGCGCCATCTAC | 0.965 RPM ratio (pull-down/input) |
| GATGATTGTTCTCCCAGCTGATGAATTGAAAAAGTCGAGTAAACAAATTTTCCTAATCTTTCTGTTCAAGCGCCATCTAC | 0.897 RPM ratio (pull-down/input) |
| GATGATTGTTCTCCCAGCTGATGAATTCCTCGCCTCGAGTAAACAAATTTTCCTAATCTTTCTGTTCAAGCGCCATCTAC | 0.847 RPM ratio (pull-down/input) |
| GATGATTGTTCTCCCAGCTGATGAATTATCCAGCTCGAGTAAACAAATTTTCCTAATCTTTCTGTTCAAGCGCCATCTAC | 0.881 RPM ratio (pull-down/input) |
| GATGATTGTTCTCCCAGCTGATGAATTTACACCATCGAGTAAACAAATTTTCCTAATCTTTCTGTTCAAGCGCCATCTAC | 1.3 RPM ratio (pull-down/input) |
| GATGATTGTTCTCCCAGCTGATGAATTCGCCAGCTCGAGTAAACAAATTTTCCTAATCTTTCTGTTCAAGCGCCATCTAC | 0.751 RPM ratio (pull-down/input) |
| GATGATTGTTCTCCCAGCTGATGAATTATAGAAATCGAGTAAACAAATTTTCCTAATCTTTCTGTTCAAGCGCCATCTAC | 1.03 RPM ratio (pull-down/input) |
| GATGATTGTTCTCCCAGCTGATGAATTTCTATTTTCGAGTAAACAAATTTTCCTAATCTTTCTGTTCAAGCGCCATCTAC | 2.01 RPM ratio (pull-down/input) |
| GATGATTGTTCTCCCAGCTGATGAATTTTTGAAGTCGAGTAAACAAATTTTCCTAATCTTTCTGTTCAAGCGCCATCTAC | 0.919 RPM ratio (pull-down/input) |
| GATGATTGTTCTCCCAGCTGATGAATTGCACCTCTCGAGTAAACAAATTTTCCTAATCTTTCTGTTCAAGCGCCATCTAC | 1.12 RPM ratio (pull-down/input) |
| GATGATTGTTCTCCCAGCTGATGAATTACACCTATCGAGTAAACAAATTTTCCTAATCTTTCTGTTCAAGCGCCATCTAC | 1.14 RPM ratio (pull-down/input) |
| GATGATTGTTCTCCCAGCTGATGAATTCCGCGGATCGAGTAAACAAATTTTCCTAATCTTTCTGTTCAAGCGCCATCTAC | 0.805 RPM ratio (pull-down/input) |
